{"source": "PubChem BioAssay AID445", "about": "(National Center for Advancing Translational Sciences (NCATS), 2006)", "note": "Screen size: about 110,000 compounds; about 40 (0.04%) were called active. Inconclusive means that the source gave no clear call. Such entries were picked first, then a sample of the others. The call rests on the fitted dose curve; in most records, active means well fitted curve in the direction sought with a large enough effect in the signal ratio (not every such curve was filed as active); inconclusive means small, poorly fitted or top-dose-only effect, or a change in a side signal; inactive means flat fitted curve, though single readings scatter; the % refers to the signal ratio. A potency beside an inconclusive call is a rough fit, not a confirmed value. Potency means the concentration at half of the fitted maximal effect."}
{"experiment": "IkB Signaling;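 on IkBa stabilization activation: 0% = basal untreated cells and 100% = reference inhibitor full response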", "conditions": "ABC-DLBCL IkBa-CBG/CBR dual luciferase ratio (green luciferase fused to IkBa over red control in OCI-Ly3 lymphoma cells), 4 h; IkBa stabilization activation: at 57.1 µM (top of the series), scaled: untreated 0%, proteasome inhibitor 100% unless noted", "outline": "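Curves were fitted separately to fusion (green), unfused (red) and ratio luminescence, then classed by r2, magnitude and activity. Cells: OCI-Ly3, 4 h compound plus doxycycline at 37C; 10 uM MG-132 defined full response.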"}
{"smiles": "CN1CSC2=C(C#N)C(c3cccc(OCc4ccccc4)c3)CC(=O)N2C1", "note": "(stereo unspecified)", "IkBa stabilization activation": "inconclusive: 13.3%"}
{"smiles": "COc1cc(C(=O)Nc2nc3c(s2)Cc2c(Br)ccc(OC)c2-3)cc(OC)c1OC", "IkBa stabilization activation": "inconclusive: 6.57% [signal inhibitor]"}
{"smiles": "O=C(Nc1nnc(N2CCCCCC2)s1)Nc1ccccc1C(F)(F)F", "IkBa stabilization activation": "inconclusive: 0.114% [signal inhibitor]"}
{"smiles": "COc1ccc(Cl)cc1NC(=O)CSc1c2c(nc3ccccc13)CCC2", "IkBa stabilization activation": "inconclusive: 0.393% [signal inhibitor]"}
{"smiles": "COc1ccc(-n2c(C)nc3c(cnn3-c3ccc(C)c(C)c3)c2=O)cc1", "IkBa stabilization activation": "inactive"}
{"smiles": "O=C(c1oc2ccccc2c1CSCc1ccccc1)N1CCN(c2ncccn2)CC1", "IkBa stabilization activation": "inconclusive: 1.12% [signal inhibitor]"}
{"smiles": "Cc1ccc(NC(=O)NCCOCCn2c(=O)oc3ccccc32)cc1F", "IkBa stabilization activation": "inconclusive: -0.537% [signal inhibitor]"}
{"smiles": "Clc1ccc(C(c2nnnn2C2CCCCC2)N(Cc2cccnc2)Cc2ccco2)cc1", "note": "(stereo unspecified)", "IkBa stabilization activation": "inconclusive: 2.23% [signal inhibitor]"}
{"smiles": "Cc1cccc(NC(=O)c2c(NC(=O)c3ccccc3)sc3c2CCCC3)c1", "Potency": "inconclusive: 12.6 µM [rising, partial curve]"}
{"smiles": "O=C(NCCCn1ccnc1)c1cn(-c2ccccc2)nc1-c1ccccc1", "IkBa stabilization activation": "inactive"}
{"smiles": "N#CC1=C2SCN(c3ccc(F)cc3)CN2C(=O)CC1c1cccc(F)c1", "note": "(stereo unspecified)", "IkBa stabilization activation": "inconclusive: 10.8% [signal inhibitor]"}
{"smiles": "CN1CCSc2ccc(C(=O)NCc3ccccc3F)cc21", "IkBa stabilization activation": "inconclusive: 2.84% [signal inhibitor]"}
{"smiles": "O=S(=O)(c1ccccc1)c1nc(-c2cccs2)oc1SCc1ccccc1Cl", "IkBa stabilization activation": "inactive"}
{"smiles": "O=C(NCc1ccco1)c1cnn2c(C(F)F)cc(-c3ccccc3)nc12", "IkBa stabilization activation": "inactive"}
{"smiles": "CCC(CO)NCc1ccc2c(c1)n(C)c(=O)n2C", "note": "(stereo unspecified)", "IkBa stabilization activation": "inactive"}
{"smiles": "COc1ccc(-c2nc3cnc(N(C)C)nc3n(C3CC3)c2=O)cc1", "IkBa stabilization activation": "inactive: -0.558% [at 11.4 µM, scaled: untreated 0%, proteasome inhibitor 100%]"}
{"smiles": "CCOc1ccccc1NC(=O)CSc1nc2c([nH]c3ccccc32)c(=O)n1-c1ccccc1", "IkBa stabilization activation": "inconclusive: 0.531% [signal inhibitor]"}
{"smiles": "Cc1ccc(Cl)cc1N1CCN(C(=O)c2cc3c(=O)n(C)c4ccccc4c3s2)CC1", "IkBa stabilization activation": "inconclusive: 3.02% [signal inhibitor]"}
{"smiles": "CCOC(=O)c1cccc(NC(=O)c2cc3sccc3n2C)c1", "IkBa stabilization activation": "inconclusive: 1.73% [signal inhibitor]"}
{"smiles": "CCn1c(=O)sc2cc(NC(=O)c3cccc(OC)c3)ccc21", "IkBa stabilization activation": "inconclusive: 14.7% [signal inhibitor]"}
{"smiles": "COc1ccc(C2CC(=O)c3c(C)nc(N4CCN(C=O)CC4)nc3C2)c(OC)c1", "note": "(stereo unspecified)", "IkBa stabilization activation": "inactive"}
{"smiles": "Cc1sc2nc(SCC(=O)c3cc(C)n(CC4CCCO4)c3C)n(C(C)C)c(=O)c2c1C", "note": "(stereo unspecified)", "IkBa stabilization activation": "inconclusive: 5.54% [signal inhibitor]"}
{"smiles": "O=C(Cn1ccn(-c2ccc(F)c(F)c2)c(=O)c1=O)c1ccc(F)cc1", "IkBa stabilization activation": "inactive"}
{"smiles": "CC(C)c1nn2c(=O)cc(COC(=O)CNC(=O)c3ccccc3Cl)nc2s1", "IkBa stabilization activation": "inactive"}
{"smiles": "CCOC(=O)c1sc(-c2ccc(OC)cc2)cc1N", "IkBa stabilization activation": "inactive"}
{"smiles": "N#CCSc1nnc(COc2cccc3ccccc23)n1-c1cccc(Cl)c1", "IkBa stabilization activation": "inconclusive: 0.126% [signal inhibitor]"}
{"smiles": "CN1CCC[C@@H]1c1cccnc1.O=C(O)c1ccccc1O.O=C([OH2+])c1ccccc1O.O=C([OH2+])c1ccccc1O.O=C([OH2+])c1ccccc1O.[Mn]", "IkBa stabilization activation": "inactive: -1.07% [at 11.4 µM, scaled: untreated 0%, proteasome inhibitor 100%]"}
{"smiles": "CCOc1ccc(Cn2c(CNS(=O)(=O)c3c(C)cc(C)cc3C)nc3cccnc32)cc1", "IkBa stabilization activation": "inconclusive: -0.115% [signal inhibitor]"}
{"smiles": "O=C(CSCc1nc2ccccc2[nH]1)N1CCN(c2ccc(F)cc2)CC1", "Potency": "inconclusive: 5.01 µM [signal inhibitor, full curve]"}
{"smiles": "CC(=O)c1ccc(NC(=O)c2ccc(NC(=O)CCS(=O)(=O)c3cccs3)cc2)cc1", "Potency": "inconclusive: 39.8 µM [signal inhibitor]"}
{"smiles": "Cc1cccc(Cn2cc(S(=O)(=O)c3ccc(Cl)cc3)c(=O)c3cc4c(cc32)OCO4)c1", "IkBa stabilization activation": "inconclusive: 3.14% [signal inhibitor]"}
{"smiles": "Cc1cccc(OCCSc2nc3ccc(NC(=O)c4cccs4)cc3s2)c1", "IkBa stabilization activation": "inconclusive: -0.798% [signal inhibitor]"}
{"smiles": "CCOc1ccc(Nc2ncnc3c2cnn3-c2ccccc2)cc1", "IkBa stabilization activation": "inactive"}
{"smiles": "O=C(CCCc1cccs1)Nc1nc2c(s1)CCCC2", "IkBa stabilization activation": "inconclusive: 1.11% [signal inhibitor]"}
{"smiles": "Nc1nonc1-c1noc(N2CCCCC2)n1", "IkBa stabilization activation": "inactive"}
{"smiles": "Cc1nc(C)c(-c2csc(Nc3cccnc3)n2)s1", "IkBa stabilization activation": "inactive"}
{"smiles": "Cc1ccc2nc(COc3cccc(NC(=O)COc4ccccc4F)c3)cc(=O)n2c1", "IkBa stabilization activation": "inconclusive: 1.78% [signal inhibitor]"}
{"smiles": "COC(=O)C1=C(C)NC(C)=C(C(=O)OC)C1c1cc2cc(C)ccc2[nH]c1=O", "IkBa stabilization activation": "inactive"}
{"smiles": "Cc1ccc(S(=O)(=O)N2CCN(C3CC(=O)N(Cc4ccccc4)C3=O)CC2)cc1C", "note": "(stereo unspecified)", "IkBa stabilization activation": "inconclusive: 1.23% [signal inhibitor]"}
{"smiles": "Cc1ccc(C)c(N2C(=O)CN=C2Nc2ccccc2Cl)c1", "IkBa stabilization activation": "inconclusive: 4.85% [signal inhibitor]"}
{"smiles": "Cc1ccc(-n2ncc(C(=O)N3CCN(c4ccccn4)CC3)c2C2CCN(C(=O)OC(C)(C)C)CC2)cc1", "IkBa stabilization activation": "inconclusive: 1.93% [signal inhibitor]"}
{"smiles": "COc1cc(-c2nc(S(=O)(=O)c3ccccc3)c(N3CCOCC3)o2)cc(OC)c1OC", "IkBa stabilization activation": "inactive"}
{"smiles": "N#Cc1nc(COc2ccc(-c3ccccc3)cc2)oc1NCCCN1CCOCC1", "IkBa stabilization activation": "inconclusive: 8.67% [signal inhibitor]"}
{"smiles": "CCC(SCC(=O)OC)C(=O)Nc1nnc(C(C)C)s1", "note": "(stereo unspecified)", "IkBa stabilization activation": "inactive"}
{"smiles": "Cc1ccc(NC(=O)c2cc(S(=O)(=O)N3CCCc4ccccc43)ccc2F)cc1F", "IkBa stabilization activation": "inconclusive: 3.5% [signal inhibitor]"}
{"smiles": "COc1ccc(Nc2c(-c3ccc(C)o3)nc3ccc(Cl)cn23)cc1", "IkBa stabilization activation": "inactive"}
{"smiles": "Cc1nc(-c2ccc(Cl)cc2)sc1CCNC(=O)c1ccc(C(F)(F)F)cc1", "IkBa stabilization activation": "inconclusive: 1.99% [signal inhibitor]"}
{"smiles": "O=C(c1ccccc1)c1nc[nH]c1C(=O)Nc1ccccn1", "IkBa stabilization activation": "inactive"}
{"smiles": "CCC(C(=O)Nc1ccccc1C(=O)OC)n1nc(C)c2c(C)n(-c3ccc(C)cc3)nc2c1=O", "note": "(stereo unspecified)", "IkBa stabilization activation": "inconclusive: -2.19% [signal inhibitor]"}
{"smiles": "COc1ccccc1C(=O)OCc1cc(=O)n2nc(C3CC3)sc2n1", "IkBa stabilization activation": "inconclusive: 4.22% [signal inhibitor]"}
{"smiles": "CN1CCN([C@@H]2Cc3ccccc3Sc3ccc(Cl)cc32)CC1", "IkBa stabilization activation": "inactive"}
{"smiles": "COc1cccc(OCCSc2nc3ccccc3n2CC(=O)N2CCCCC2)c1", "IkBa stabilization activation": "inconclusive: -1.08% [signal inhibitor]"}
{"smiles": "COC(=O)c1cc(-c2c(C)nn(-c3ccccc3)c2C)n[nH]1", "Potency": "inconclusive: 12.6 µM [signal inhibitor, partial curve]"}
{"smiles": "COc1ccc(OC)c(NC(=O)CSCc2cnn(-c3ccccc3)c2-n2cccc2)c1", "IkBa stabilization activation": "inconclusive: 2.76% [signal inhibitor]"}
{"smiles": "COc1ccc(-c2nc(CN3CCC(C(=O)NCCCOC(C)C)CC3)c(C)o2)cc1OC", "IkBa stabilization activation": "inactive"}
{"smiles": "CC1=CC(C)(C)N2C(=O)C3(C(C#N)=C(N)OC4=C3C(=O)CC(C)(C)C4)c3cccc1c32", "note": "(stereo unspecified)", "IkBa stabilization activation": "inactive"}
{"smiles": "CCOC(=O)c1c(CN2CCN(C)CC2)oc2ccc(O)cc12", "IkBa stabilization activation": "inactive"}
{"smiles": "N#CCCSC(=S)[C@H]1CCCC1=N", "IkBa stabilization activation": "inactive: -0.771% [at 11.4 µM, scaled: untreated 0%, proteasome inhibitor 100%]"}
{"smiles": "Cn1c(=O)c2c(nc(NCc3ccccc3)n2CCCc2ccccc2)n(C)c1=O", "IkBa stabilization activation": "inconclusive: 2.95% [signal inhibitor]"}
{"smiles": "COC(=O)c1[nH]c2ccccc2c1NC(=O)CN1CCN(C/C=C/c2ccccc2)CC1", "IkBa stabilization activation": "inconclusive: -1.39% [signal inhibitor]"}
{"smiles": "O=C(Cn1cc2c(n1)CCCCC2)NCc1cccs1", "Potency": "inconclusive: 25.1 µM [signal inhibitor, partial curve]"}
{"smiles": "CC(=O)Nc1cc(C(=O)NCc2ccc(C)cc2)ccc1Sc1ccc(C)cc1", "IkBa stabilization activation": "inconclusive: 2.26% [signal inhibitor]"}
{"smiles": "Cc1cc(-n2c(SCC(=O)NCc3cccs3)nc3n[nH]c(C)c3c2=N)ccc1Cl", "IkBa stabilization activation": "inactive"}
{"smiles": "CS[C@@H](CC(=O)O)C(=O)O", "IkBa stabilization activation": "inactive: -1.16% [at 11.4 µM, scaled: untreated 0%, proteasome inhibitor 100%]"}
{"smiles": "C=CCC(CC=C)(CNC(=O)C(=O)Nc1cccc(C(F)(F)F)c1)c1ccccc1", "IkBa stabilization activation": "inactive"}
{"smiles": "O=C(Nc1nnc(-c2ccco2)s1)c1ccccc1", "Potency": "inconclusive: 15.8 µM [signal inhibitor, partial curve]"}
{"smiles": "CCc1ccc(-c2nc(CN3CCCC(C(=O)N4CCN(c5cc(Cl)ccc5C)CC4)C3)c(C)o2)cc1", "note": "(stereo unspecified)", "IkBa stabilization activation": "inconclusive: -1.67% [signal inhibitor]"}
{"smiles": "COc1ccc(Cl)cc1NC(=O)CN(C)S(=O)(=O)c1ccc2c(c1)CCCN2C(C)=O", "IkBa stabilization activation": "inconclusive: 4.67% [signal inhibitor]"}
{"smiles": "Cc1cccc(-n2c(=O)c3c(c4cc(C)ccc4n3C)n(CC(=O)NCCC3=CCCCC3)c2=O)c1", "IkBa stabilization activation": "inconclusive: 0.777% [signal inhibitor]"}
{"smiles": "COc1ccc(-c2noc(-c3cccnc3NCc3ccco3)n2)cc1", "IkBa stabilization activation": "inactive"}
{"smiles": "CCOC(=O)CSc1nc2ccccc2c(=O)n1CCc1ccc(OC)c(OC)c1", "IkBa stabilization activation": "inconclusive: -1.44% [signal inhibitor]"}
